The source of these data is US11000038B2, “Pyridone compounds and agricultural and horticultural fungicides containing the same as active ingredients” (priority 2017, dated 2021).

Test [1] relates to cabbage Alternaria sooty spot fungi (Alternaia brassicicola). Kind of test: Test Example C: cabbage Alternaria sooty spot, spray treatment of cabbage plants. It is filed as in vivo. Particulars: cabbage Alternaria sooty spot, spray treatment of cabbage plants. From the text:
[Test Example C] Cabbage Alternaria Sooty Spot
Test plants (cabbage variety: Shikidori) were cultivated until the cotyledons extended after the sowing of seeds.
<Control Value> Control value=100{1−(n/3)}

Test [2] concerns wheat brown rust fungi (Puccinia recondita). Nature of the test: Test Example E: wheat brown rust, spray treatment of wheat plants. It is filed as in vivo. Particulars: wheat brown rust, spray treatment of wheat plants.
Test [3] has as its system gray mold fungi (Botrytis cinerea). Nature of the test: Test Example B: tomato gray mold, spray treatment of tomato plants. Particulars: tomato gray mold, spray treatment of tomato plants.
For test [4], the system named is grape downy mildew fungus (Plasmopara viticola). Kind of test: Test Example G: grape downy mildew, spray treatment of grape plants. As to conditions: grape downy mildew, 250 ppm spray (2.5 ml/pot), 7 to 10 days after inoculation.
Test [5] has as its system barley powdery mildew fungi (Blumeria graminis f. sp. hordei). Kind of test: Test Example D: barley powdery mildew, spray treatment of barley plants. As to conditions: barley powdery mildew, spray treatment of barley plants.

In the case of `O=c1c(Cl)cn(-c2ccccc2C(F)(F)F)c(-c2c(F)cc(F)cc2F)c1Br` [Compound 198], in test [1], the “Test C control value” is given as “H (H shows the control value of more than 50%)”. For the same molecule, the “Test E control value” in test [2] is listed as “H (H shows the control value of more than 50%)”. Also, the “Test B control value” in test [3] is “H (H shows the control value of more than 50%)”. The “Test G control value” in test [4] was “L (L shows the control value of 50% or less)”. For the same molecule, in test [5], the “Test D control value” is on record as “L (L shows the control value of 50% or less)”.
As to `O=c1c(Cl)cn(-c2ccccc2C(F)(F)F)c(-c2c(F)cc(F)cc2F)c1Cl` [Compound 199], the “Test C control value” in test [1] is recorded as “H (H shows the control value of more than 50%)”. For the same molecule, in test [2], the “Test E control value” is on record as “H (H shows the control value of more than 50%)”. Further, the “Test B control value” in test [3] was “H (H shows the control value of more than 50%)”. For the same molecule, the “Test G control value” in test [4] is “L (L shows the control value of 50% or less)”. The “Test D control value” in test [5] was “L (L shows the control value of 50% or less)”.
Regarding `CC(C)CCn1cc(Cl)c(=O)c(Cl)c1-c1c(F)cc(F)cc1F` [Compound 200], in test [1], the “Test C control value” is “H (H shows the control value of more than 50%)”. Moreover, the “Test E control value” in test [2] is “L (L shows the control value of 50% or less)”. Also, in test [3], the “Test B control value” is “L (L shows the control value of 50% or less)”. Also, the “Test G control value” in test [4] is reported as “L (L shows the control value of 50% or less)”. In addition, the “Test D control value” in test [5] is given as “L (L shows the control value of 50% or less)”.
As for `CC(C)CCn1cc(Cl)c(=O)c(Br)c1-c1c(F)cc(F)cc1F` [Compound 201], in test [1], the “Test C control value” was “H (H shows the control value of more than 50%)”. For the same molecule, in test [2], the “Test E control value” was “L (L shows the control value of 50% or less)”. In test [3], the “Test B control value” is “L (L shows the control value of 50% or less)”. The “Test G control value” in test [4] was “L (L shows the control value of 50% or less)”. The “Test D control value” in test [5] is given as “L (L shows the control value of 50% or less)”.
With `CC(C)CCn1cc(Br)c(=O)c(Cl)c1-c1c(F)cc(F)cc1F` [Compound 202], the “Test C control value” in test [1] was “H (H shows the control value of more than 50%)”. Further, the “Test E control value” in test [2] was “L (L shows the control value of 50% or less)”. Further, the “Test B control value” in test [3] is on record as “L (L shows the control value of 50% or less)”. In test [4], the “Test G control value” is listed as “L (L shows the control value of 50% or less)”. Moreover, the “Test D control value” in test [5] was “L (L shows the control value of 50% or less)”.
As for `CC(C)CCn1cc(Br)c(=O)c(Br)c1-c1c(F)cc(F)cc1F` [Compound 203], the “Test C control value” in test [1] is reported as “H (H shows the control value of more than 50%)”. Moreover, in test [2], the “Test E control value” is recorded as “L (L shows the control value of 50% or less)”. Also, in test [3], the “Test B control value” is given as “H (H shows the control value of more than 50%)”. Besides, the “Test G control value” in test [4] was “L (L shows the control value of 50% or less)”. In addition, the “Test D control value” in test [5] is “L (L shows the control value of 50% or less)”.
For the molecule `COc1cc(F)c(-c2c(Br)c(=O)c(Cl)cn2CCC(C)C)c(F)c1` [Compound 204], in test [1], the “Test C control value” was “H (H shows the control value of more than 50%)”. Besides, the “Test E control value” in test [2] is “L (L shows the control value of 50% or less)”. The “Test B control value” in test [3] was “H (H shows the control value of more than 50%)”. In test [4], the “Test G control value” is reported as “L (L shows the control value of 50% or less)”. For the same molecule, the “Test D control value” in test [5] was “L (L shows the control value of 50% or less)”.
For `CCc1c(-c2c(F)cc(F)cc2F)n(-c2ccccc2C)cc(Br)c1=O` [Compound 205], the “Test C control value” in test [1] is “H (H shows the control value of more than 50%)”. For the same molecule, the “Test E control value” in test [2] is listed as “H (H shows the control value of more than 50%)”. In addition, the “Test B control value” in test [3] is on record as “H (H shows the control value of more than 50%)”. Also, the “Test G control value” in test [4] was “L (L shows the control value of 50% or less)”. For the same molecule, the “Test D control value” in test [5] is “H (H shows the control value of more than 50%)”.
Consider `Cc1ccc(C)c(-n2cc(Br)c(=O)c(Br)c2-c2c(F)cccc2F)c1` [Compound 207], for which, in test [1], the “Test C control value” is on record as “L (L shows the control value of 50% or less)”. In addition, the “Test E control value” in test [2] is given as “H (H shows the control value of more than 50%)”. In addition, the “Test B control value” in test [3] is recorded as “L (L shows the control value of 50% or less)”. Besides, in test [4], the “Test G control value” is on record as “L (L shows the control value of 50% or less)”. For the same molecule, the “Test D control value” in test [5] is “L (L shows the control value of 50% or less)”.
As for `Cc1ccc(C)c(-n2cc(Cl)c(=O)c(Br)c2-c2c(F)cccc2F)c1` [Compound 208], the “Test C control value” in test [1] was “L (L shows the control value of 50% or less)”. Besides, the “Test E control value” in test [2] was “H (H shows the control value of more than 50%)”. In test [3], the “Test B control value” was “L (L shows the control value of 50% or less)”. The “Test G control value” in test [4] is on record as “L (L shows the control value of 50% or less)”. Also, the “Test D control value” in test [5] is given as “L (L shows the control value of 50% or less)”.
Consider `Cc1ccc(C)c(-n2cc(Cl)c(=O)c(Cl)c2-c2c(F)cccc2F)c1` [Compound 209], for which the “Test C control value” in test [1] was “H (H shows the control value of more than 50%)”. Besides, the “Test E control value” in test [2] is “H (H shows the control value of more than 50%)”. Besides, the “Test B control value” in test [3] is “H (H shows the control value of more than 50%)”. Further, the “Test G control value” in test [4] is reported as “L (L shows the control value of 50% or less)”. Besides, the “Test D control value” in test [5] is on record as “L (L shows the control value of 50% or less)”.
In the case of `COCCn1cc(Cl)c(=O)c(Cl)c1-c1c(F)cc(F)cc1F` [Compound 210], the “Test C control value” in test [1] is recorded as “L (L shows the control value of 50% or less)”. In addition, the “Test E control value” in test [2] is “H (H shows the control value of more than 50%)”. The “Test B control value” in test [3] is listed as “L (L shows the control value of 50% or less)”. The “Test G control value” in test [4] is “H (H shows the control value of more than 50%)”. Besides, the “Test D control value” in test [5] is on record as “L (L shows the control value of 50% or less)”.
`COCCn1cc(Br)c(=O)c(Br)c1-c1c(F)cc(F)cc1F` [Compound 213]: in test [1], the “Test C control value” was “H (H shows the control value of more than 50%)”. In test [2], the “Test E control value” is reported as “H (H shows the control value of more than 50%)”. Further, the “Test B control value” in test [3] is listed as “L (L shows the control value of 50% or less)”. In addition, the “Test G control value” in test [4] is “H (H shows the control value of more than 50%)”. Moreover, the “Test D control value” in test [5] is given as “L (L shows the control value of 50% or less)”.
Regarding `COc1cc(F)c(-c2c(Br)c(=O)c(Cl)cn2CC(C)(C)C)c(F)c1` [Compound 214], the “Test C control value” in test [1] is listed as “H (H shows the control value of more than 50%)”. Also, in test [2], the “Test E control value” is recorded as “H (H shows the control value of more than 50%)”. Also, the “Test B control value” in test [3] was “H (H shows the control value of more than 50%)”. For the same molecule, the “Test G control value” in test [4] is “L (L shows the control value of 50% or less)”. Moreover, the “Test D control value” in test [5] was “L (L shows the control value of 50% or less)”.
